Assay results as given in PubChem BioAssay AID1347165 (National Center for Advancing Translational Sciences (NCATS), 2019).
Screen size: about 220,000 compounds; about 5,700 (2.6%) were called active. Inconclusive results, whose numbers are uncertain, are shown with a selection of clear calls. The call rests on the fitted dose curve; in most records, active means well fitted inhibition curve with a large enough effect; inconclusive means small, poorly fitted or top-dose-only effect; inactive means no such curve, though single readings can be large or run the other way. Potencies of inconclusive entries are doubtful fits and often do not repeat.
Further: nearly all actives have a fitted effect of over 70% in size.
Potency means the concentration at half of the fitted maximal effect; tags describe the fitted curve by direction and shape.
Wherever activity change, negative = inhibition is given: 0% is about no effect.

The compounds below were run against Lysine-specific demethylase 5B (Homo sapiens) (UniProt Q9UGL1) (assay: Primary screen for KDM5B Histone Demethylases FDH-coupled qHTS). Settings: FDH-coupled NADH fluorescence (FDH is formaldehyde dehydrogenase); activity change, negative = inhibition: at 57.7 µM (top of the series) unless noted.
UniProt Q9UGL1, sequence (Q9UGL1 whole entry, looked up, the tested form may be a part): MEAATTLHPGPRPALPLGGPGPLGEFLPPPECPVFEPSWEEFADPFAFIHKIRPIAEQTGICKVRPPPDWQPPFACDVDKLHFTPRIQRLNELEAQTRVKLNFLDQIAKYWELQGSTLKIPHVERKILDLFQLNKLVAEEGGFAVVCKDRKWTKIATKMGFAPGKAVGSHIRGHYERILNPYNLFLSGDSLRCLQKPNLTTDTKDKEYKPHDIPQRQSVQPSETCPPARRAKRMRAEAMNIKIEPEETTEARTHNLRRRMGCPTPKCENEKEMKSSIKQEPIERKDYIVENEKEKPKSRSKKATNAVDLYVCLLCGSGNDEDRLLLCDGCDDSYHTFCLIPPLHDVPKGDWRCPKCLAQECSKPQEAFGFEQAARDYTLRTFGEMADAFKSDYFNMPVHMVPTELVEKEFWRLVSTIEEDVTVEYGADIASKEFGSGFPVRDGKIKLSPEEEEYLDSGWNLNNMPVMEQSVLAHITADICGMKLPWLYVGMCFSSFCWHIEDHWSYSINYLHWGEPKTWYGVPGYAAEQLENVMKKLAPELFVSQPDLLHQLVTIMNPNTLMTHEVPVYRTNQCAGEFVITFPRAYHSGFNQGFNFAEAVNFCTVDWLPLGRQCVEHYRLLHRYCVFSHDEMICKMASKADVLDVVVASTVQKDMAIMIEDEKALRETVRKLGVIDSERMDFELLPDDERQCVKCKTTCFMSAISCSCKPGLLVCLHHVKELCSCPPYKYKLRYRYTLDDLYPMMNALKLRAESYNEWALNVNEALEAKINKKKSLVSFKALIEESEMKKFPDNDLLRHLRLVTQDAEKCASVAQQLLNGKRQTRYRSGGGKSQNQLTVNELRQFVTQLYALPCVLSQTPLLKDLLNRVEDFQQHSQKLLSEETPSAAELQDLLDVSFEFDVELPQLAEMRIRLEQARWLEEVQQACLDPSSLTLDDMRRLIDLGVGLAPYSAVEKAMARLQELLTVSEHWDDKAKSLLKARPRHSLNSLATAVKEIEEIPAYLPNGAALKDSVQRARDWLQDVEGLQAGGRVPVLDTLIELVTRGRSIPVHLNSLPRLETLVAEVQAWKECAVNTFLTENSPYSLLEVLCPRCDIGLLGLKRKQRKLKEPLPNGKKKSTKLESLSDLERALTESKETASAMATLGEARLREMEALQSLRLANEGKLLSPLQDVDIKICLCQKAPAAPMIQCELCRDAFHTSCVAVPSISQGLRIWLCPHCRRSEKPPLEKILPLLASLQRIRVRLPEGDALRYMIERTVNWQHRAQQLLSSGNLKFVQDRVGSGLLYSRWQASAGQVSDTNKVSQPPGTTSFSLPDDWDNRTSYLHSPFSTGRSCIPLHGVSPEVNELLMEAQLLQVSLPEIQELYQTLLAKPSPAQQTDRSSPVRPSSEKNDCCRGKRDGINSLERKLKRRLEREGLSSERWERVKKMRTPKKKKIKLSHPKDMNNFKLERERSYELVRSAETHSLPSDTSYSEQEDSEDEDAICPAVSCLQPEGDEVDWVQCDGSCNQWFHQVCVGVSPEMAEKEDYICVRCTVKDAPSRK
Summary of the method: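 Inhibition is measured as reduced NADH fluorescence generation from FDH coupling to formaldehyde release. Truncated KDM5BΔAP at 200 nM final acts on H3K4me3 peptide (12.5 µM in substrate mix) in pH 7.5 HEPES buffer with Tween-20, 30 min, room temperature.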
For COCCOC1CCOC2(CCN(C(=O)Nc3ccccc3F)CC2)C1 (stereo unspecified), the “activity change, negative = inhibition” value was inactive: 13.7%. For Cc1cc(C)cc(-n2ccnc2SCC(=O)Nc2ccccc2F)c1, the activity change, negative = inhibition was inconclusive: -33.4% [inhibitor]. For Cc1cccc(NC(=O)c2c(NC(=O)c3ccccc3)sc3c2CCC3)c1, the Potency was inconclusive: 25.1 µM [inhibitor, partial curve, poor fit]. With CC(OC(=O)c1csc(NCc2ccccc2)n1)C(=O)N1CCNC1=O (stereo unspecified) the “activity change, negative = inhibition” value was inactive: -9.36%. In the case of N#Cc1nc(-c2ccccc2F)oc1NC1CCCCC1, the Potency is reported as inconclusive: 25.1 µM [inhibitor, partial curve, poor fit]. With C=CCc1ccccc1OCCSc1nc(-c2ccccc2F)nc2cc(=O)[nH]n12 the Potency was inconclusive: 70.8 µM [inhibitor, single point]. For Clc1cccc(Cl)c1C=Nc1cccc2ccccc12, the Potency was inconclusive: 22.4 µM [inhibitor, partial curve, poor fit]. For O=S(=O)(NCC(c1ccccc1)N1CCc2ccccc21)c1ccc(Cl)cc1 (stereo unspecified), the Potency was inconclusive: 1 µM [inhibitor, partial curve, poor fit]. For Cc1ccc(OCCn2c(C3CC(=O)N(Cc4ccc(F)cc4)C3)nc3ccccc32)c(C)c1 (stereo unspecified), the Potency was inconclusive: 14.1 µM [inhibitor, single point]. In the case of COc1ccccc1/C=C/C(=O)Nc1nc2n(n1)C(c1ccc(F)cc1)C=C(c1ccccc1)N2 (stereo unspecified), the “activity change, negative = inhibition” value is reported as inactive: -32.1%. COc1ccc(OC)c(S(=O)(=O)NCCS(=O)(=O)N2CCN(c3ccccc3F)CC2)c1 was tested, and the “activity change, negative = inhibition” value was inactive: -21.3%. In the case of COc1ccc2nc(C)cc(Nc3ccc(Cl)cc3)c2c1, the “activity change, negative = inhibition” value is reported as inactive: -2.77%. For c1ccc(CCc2nc3nccc(-c4ccncc4)n3n2)cc1, the “activity change, negative = inhibition” value was inactive: -28.8%. With Cc1cc(C[C@@H]2COC[C@@H]2NC(=O)c2cnn3ccccc23)on1 the Potency was active: 28.2 µM. In the case of Cc1ccccc1OCC(=O)NCc1nnc2c(-c3nc(C4CC4)no3)cccn12, the “activity change, negative = inhibition” value is reported as inactive: -22.6%. O=c1oc2ccccc2cc1-c1nc(-c2ccc(F)cc2)no1 was tested, and the “activity change, negative = inhibition” value was inactive: 6.44%. For CC(=O)N(C1CCOCC1)C1CCN(S(=O)(=O)c2ccccc2)CC1, the “activity change, negative = inhibition” value was inactive: 10.9%. COc1ccc(NS(=O)(=O)c2cccc(C(=O)N3c4ccccc4CC3C)c2)cc1 (stereo unspecified) was tested, and the “activity change, negative = inhibition” value was inactive: -5.09%. In the case of Cc1ccc(S(=O)(=O)NCC(CCC(=O)O)C(F)(F)F)cc1 (stereo unspecified), the “activity change, negative = inhibition” value is reported as inactive: 1.49%. For CN(CC(=O)NC(=O)NC1CCCCC1)c1ccc2ccccc2c1, the Potency was inconclusive: 25.1 µM [inhibitor, partial curve, poor fit]. CCCCN(CC)CCCNC(=O)c1cn(C)c(=O)c2c1c1ccccc1n2C was tested, and the Potency was inconclusive: 12.6 µM [inhibitor, partial curve, poor fit]. For CCN1CCN(c2nc3ccccc3nc2NS(=O)(=O)c2ccccc2)CC1, the Potency was inconclusive: 25.1 µM [inhibitor, partial curve, poor fit]. For CC(C)c1noc(CCn2ccnc2-c2cnc[nH]2)n1, the Potency was inconclusive: 17.8 µM [inhibitor, partial curve, poor fit]. For CCN1C(=O)COc2ccc(-c3csc(NC(=O)c4ccco4)n3)cc21, the “activity change, negative = inhibition” value was inactive: -8.81%. For Cc1cccc(-n2ncc3c(NNC(=O)c4ccccc4Cl)ncnc32)c1, the Potency was inconclusive: 17.8 µM [inhibitor, partial curve, poor fit]. With CC(=O)Nc1ccc2c(ccn2CCN2CCOCC2)c1 the “activity change, negative = inhibition” value was inactive: 13.3%. COc1ccc(-c2nc(CSC(C)C(=O)NC(C)(C)C)co2)cc1 (stereo unspecified) was tested, and the “activity change, negative = inhibition” value was inactive: -5.99%. With CCOc1ccc(S(=O)(=O)NCCc2sc(-c3cccc(F)c3)nc2C)cc1 the Potency was inconclusive: 22.4 µM [inhibitor, partial curve, poor fit]. COc1ccccc1Nc1ncnc2c1cnn2-c1cccc(Cl)c1 was tested, and the Potency was inconclusive: 28.2 µM [inhibitor, partial curve, poor fit]. In the case of Cc1c(CC(=O)NCc2ccccc2)c(=O)oc2cc(O)ccc12, the “activity change, negative = inhibition” value is reported as inactive: -2150%. In the case of Cc1nn(-c2ccccc2)nc1CNC(=O)c1ncoc1-c1ccccc1, the Potency is reported as inconclusive: 22.4 µM [inhibitor, single point]. In the case of CCN(CCO)C(=O)CC1C(=O)NCCN1Cc1cccnc1 (stereo unspecified), the Potency is reported as inconclusive: 15.8 µM [inhibitor, partial curve]. In the case of COc1cccc(-c2cc3c(ccn3CC3CCN(C)CC3)c(N3CCOCC3)n2)c1, the “activity change, negative = inhibition” value is reported as inactive: -1250% [at 86.2 µM]. COCCn1cnnc1C(C)NC(=O)CCc1nc2ccccc2[nH]c1=O (stereo unspecified) was tested, and the Potency was inconclusive: 28.2 µM [inhibitor, partial curve, poor fit]. CCCc1cc(=O)[nH]c(SCc2noc(-c3ccc(C)cc3)n2)n1 was tested, and the “activity change, negative = inhibition” value was inactive: -2.23%. In the case of CN1CCN(c2nc3ccccc3nc2NS(=O)(=O)c2ccc(Br)cc2)CC1, the Potency is reported as inconclusive: 39.8 µM [inhibitor, single point]. With COCCC(C)NC(=O)c1cc(=O)[nH]c2ccccc12 (stereo unspecified) the Potency was inconclusive: 39.8 µM [inhibitor, single point]. COc1cccc(NC(=O)c2nnn(Cc3nc(-c4ccc(OC(C)C)cc4)oc3C)c2N)c1 was tested, and the Potency was inconclusive: 25.1 µM [inhibitor, single point]. With COC(=O)c1ccccc1NC(=O)CN1N=C(c2ccccc2)c2cc(Cl)ccc2S1(=O)=O the “activity change, negative = inhibition” value was inactive: 18.3%. In the case of COc1cc(/C=C/c2cc(C(=O)O)c3ccccc3n2)ccc1O, the “activity change, negative = inhibition” value is reported as inactive: -18.9%. In the case of CC(=O)Nc1ccc(S(=O)(=O)[C@H]2CS(=O)(=O)C[C@@H]2N2CCCC2)cc1, the “activity change, negative = inhibition” value is reported as inactive: -5.53%. With COc1ccc(C(=O)N[C@H]2[C@H](O)[C@H](O)C[C@@H]2c2ccc(N3CCOCC3)nc2)cc1OC the Potency was inconclusive: 39.8 µM [inhibitor, single point]. Cc1ccccc1Cn1c(CN2CCC(C(=O)NCCN(C)C)CC2)cc2ccccc21 was tested, and the Potency was inconclusive: 39.8 µM [inhibitor, single point]. With CCCCOc1ccc2c(C)c(C)c(=O)oc2c1 the Potency was inconclusive: 20 µM [inhibitor, partial curve, poor fit]. For CCCCOc1ccc2c(C)c(CC)c(=O)oc2c1, the Potency was inconclusive: 10 µM [inhibitor, partial curve, poor fit]. Cc1nc(-c2ccccc2)sc1CCNS(=O)(=O)c1ccccc1 was tested, and the Potency was inconclusive: 25.1 µM [inhibitor, partial curve, poor fit]. O=C1CN(C(=O)CNCc2ccccc2Cl)c2ccccc2N1 was tested, and the Potency was inconclusive: 10 µM [inhibitor, partial curve, poor fit]. CCOC(=O)C1CCCN(C(=O)C2CC(c3ccc(F)c(C)c3)CN(C(=O)NC(C)C)C2)C1 (stereo unspecified) was tested, and the Potency was inconclusive: 28.2 µM [inhibitor, partial curve, poor fit]. In the case of COc1ccc(Nc2nc(-c3ccc(CNC(C)=O)cc3)cs2)cc1, the Potency is reported as inconclusive: 25.1 µM [inhibitor, single point]. In the case of CN1CCc2c(sc3nc(NN)n(Cc4ccccc4)c(=O)c23)C1, the Potency is reported as inconclusive: 20 µM [inhibitor, partial curve, poor fit]. For O=C(NCc1ncc(-c2ccccc2)o1)c1cccc(F)c1, the “activity change, negative = inhibition” value was inactive: -11.9%. COc1ccc(-c2nc(C3CC3)nc3c2CCN(Cc2ccc(NC(C)=O)cc2)CC3)cc1 was tested, and the Potency was inconclusive: 56.2 µM [inhibitor, partial curve, poor fit]. For CCOc1ccc2c(c1)c(=O)c(S(=O)(=O)c1ccccc1)cn2CC(=O)Nc1ccccc1OC, the Potency was inconclusive: 39.8 µM [inhibitor, single point]. O=C1CCN(Cc2ccncc2)CCCC(CO)CCN1 (stereo unspecified) was tested, and the Potency was inconclusive: 22.4 µM [inhibitor, single point]. In the case of Cc1cc(NC(=O)CSc2nc3c(c(=O)n(C)c(=O)n3C)n2Cc2ccccc2C)ccc1F, the “activity change, negative = inhibition” value is reported as inactive: 7.38%. O=Cc1cn[nH]c1-c1cccnc1 was tested, and the “activity change, negative = inhibition” value was inactive: 20.4%. In the case of O=C(Cn1nc2c(cc1=O)CCCCC2)NCCc1ccco1, the “activity change, negative = inhibition” value is reported as inactive: -9.66%. With O=C(CCCc1cccs1)NC1CC1 the “activity change, negative = inhibition” value was inactive: 23.4%. In the case of COc1ccccc1C(=O)Nc1nnc(S(=O)(=O)N(C)c2ccc(Cl)cc2)s1, the activity change, negative = inhibition is reported as inconclusive: -40.4% [inhibitor]. In the case of COCCN1CCC2(C1)CN(C)c1ccc(C(=O)Nc3ccc(F)cc3)cc12 (stereo unspecified), the Potency is reported as inconclusive: 35.5 µM [inhibitor, partial curve, poor fit]. For Cc1cn2nc(C(=O)NCc3cccc(C(F)(F)F)c3)cc2c(N2CCSCC2)n1, the Potency was active: 28.2 µM. For Cc1cccc(C(=O)Nc2c(NCC3CCCCC3)c3ccccc3oc2=O)c1, the “activity change, negative = inhibition” value was inactive: -5.13%. In the case of Cc1ccsc1-c1[nH]nc2ncc(-c3cn[nH]c3)nc12, the Potency is reported as active: 31.6 µM. In the case of O=C(O)c1cc(-c2ccc(C(F)(F)F)cc2)nc2n[nH]c(-c3ccccc3)c12, the Potency is reported as inconclusive: 22.4 µM [inhibitor, partial curve, poor fit]. COc1cc2c(cc1OC)C(c1ccccc1)N(CC(=O)Nc1ccc(C(N)=O)cc1)CC2 (stereo unspecified) was tested, and the “activity change, negative = inhibition” value was inactive: 12%. In the case of COc1ccc(-c2nc(CSCC(=O)NC3CC3)c(C)o2)cc1OC, the Potency is reported as inconclusive: 39.8 µM [inhibitor, single point]. With O[C@@H]1C[C@@H](c2nc(-c3ccc(F)cc3)no2)N(Cc2ccncc2)C1 the Potency was inconclusive: 35.5 µM [inhibitor, single point]. For O=C(c1cc2c(s1)CN(C1CCCC1)C2)N1CCCN(c2ncccn2)CC1, the Potency was active: 6.31 µM. For O=C(C1CCCC1)N1CC[C@](O)(c2ccccc2)[C@H](N2CCCC2)C1, the Potency was inconclusive: 10 µM [inhibitor, partial curve, poor fit]. For CCOC(=O)c1c(C)n(-c2ccccc2)c2ccc(OC(=O)c3ccccc3NC(=O)C(C)(C)C)cc12, the Potency was inconclusive: 28.2 µM [inhibitor, partial curve, poor fit]. For Cc1ccc(NC(=O)c2c(C)nc3sc(C(=O)Nc4ccc(F)cc4)c(N)c3c2-c2ccccc2Cl)c(C)c1, the Potency was inconclusive: 1.78 µM [inhibitor, partial curve, poor fit].
